# Laboratory results from PubChem BioAssay AID1508623 (National Center for Advancing Translational Sciences (NCATS), 2021).
# The campaign covered roughly 48,000 compounds. About 450 (0.94%) were called active. The inconclusive results got no clear call from the source; some entries with a clear call stand among them for comparison. Calls follow the shape of the dose curve; as a rule, active = well fitted inhibition curve with a large enough effect; inconclusive = small, poorly fitted or top-dose-only effect; inactive = no such curve, though single readings can be large or run the other way. A potency beside an inconclusive call is a rough fit, not a confirmed value.
# Assay: Primary qHTS for Identification of Small Molecule Inhibitors of Huntingtin Promoter Activity; also: nearly all actives have a fitted effect of over 50% in size
# Settings: HEK293 HTT promoter firefly luciferase reporter (activity 0% = vehicle and -100% = no light), 24 h; activity change, negative = inhibition: at 57.5 µM (top of the series)
# Procedure, shortened: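 HEK293 Fluc reporter, 2,500 cells/well, 24 h pre-culture; cpds up to 57.5 uM final, 24 h 37 degrees C; Dual-Glo, 10 min RT; normalized vehicle = 0%, zero RLU = -100%.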
# Potency is read from the fitted curve at half-maximal effect; tags tell the direction and shape of the fitted curve.
Compound,Potency,"activity change, negative = inhibition"
CCOc1ccc(CCNC(=O)C2CCCN(S(=O)(=O)N(C)c3ccc(F)cc3)C2)cc1 (stereo unspecified),"inconclusive: 22.4 µM [inhibitor, partial curve, poor fit]",–
COc1ccc(Cl)cc1-n1cc(-c2ccccc2)nc1SCC(=O)Nc1ccc(C)cc1,"inconclusive: 20 µM [inhibitor, partial curve, poor fit]",–
CCc1ccc(CNC(=O)CCCn2ccc3cc(S(=O)(=O)N4CCCC4)ccc32)cc1,"inconclusive: 3.16 µM [inhibitor, partial curve]",–
Cc1nc(-c2ccc(S(=O)(=O)Nc3cc(Cl)ccc3C)cc2)co1,–,inactive: -25.8%
COc1ccc2c(CNCCc3ccc(SC)cc3)c(C(=O)O)n(Cc3ccc(F)cc3)c2c1,"inconclusive: 25.1 µM [inhibitor, partial curve, poor fit]",–
Cc1cccc(CN2C(=O)c3ccccc3Sc3ccc(C(=O)NCc4ccco4)cc32)c1,"inconclusive: 39.8 µM [inhibitor, single point]",–
CCS(=O)(=O)c1ncc(Cl)c(C(=O)N2CCN(c3ccc(OC)cc3)CC2)n1,"inconclusive: 39.8 µM [inhibitor, single point]",–
O=c1c2ccccc2nc(/C=C/c2cccc3ccccc23)n1-c1ccc(F)cc1F,"inconclusive: 12.6 µM [inhibitor, single point]",–
CCC(Sc1nc2c(sc3ccccc32)c(=O)n1CCc1ccc(OC)c(OC)c1)C(=O)N(CC)CC (stereo unspecified),"inconclusive: 39.8 µM [inhibitor, single point]",–
CC1CCN(S(=O)(=O)N2CCC(C(=O)NCc3ccccc3Cl)CC2)CC1,"inconclusive: 39.8 µM [inhibitor, single point]",–
Cc1ccsc1CCN1C(=O)N(c2ccccc2)C(=O)C1CC(=O)Nc1ccc(Cl)cc1 (stereo unspecified),"inconclusive: 20 µM [inhibitor, partial curve, poor fit]",–
COc1ccc(N2CCN(C(=O)CSc3nc(-c4ccc(C(C)C)cc4)no3)CC2)cc1,"inconclusive: 28.2 µM [inhibitor, partial curve, poor fit]",–
c1cc(N[C@@H]2CCNC2)nc(-c2cnc3ccc(-c4cn[nH]c4)cn23)c1,"inconclusive: 12.2 µM [inhibitor, partial curve]",–
Cc1ncc([N+](=O)[O-])n1CC(C)O (stereo unspecified),"inconclusive: 19.3 µM [inhibitor, partial curve]",–
O=C(Cn1cc(C(=O)C2CCCCC2)c2ccccc21)Nc1ccccc1Cl,"inconclusive: 28.2 µM [inhibitor, single point]",–
CCCN(CCC)C(=O)c1cc2c(=O)n3cccc(C)c3nc2s1,–,inactive: 15.9%
CC1=C(c2ccc(C)c(C)c2)S(=O)(=O)N=C1N1CCC(C(=O)NC(C)c2ccccc2)CC1 (stereo unspecified),"inconclusive: 15.8 µM [inhibitor, partial curve, poor fit]",–
Cc1ccc(CN(C(=O)c2ccc(C(C)(C)C)cc2)c2ccccn2)o1,"inconclusive: 28.2 µM [inhibitor, partial curve, poor fit]",–
Cc1c(N)cccc1C(F)(F)F,–,inactive: 12.2%
COc1ccccc1NC(=O)CSc1ncc2c(n1)-c1ccccc1N(Cc1ccccc1C)S2(=O)=O,"inconclusive: 20 µM [inhibitor, partial curve, poor fit]",–
CCOC(=O)C1CCCN(S(=O)(=O)c2cc(-c3cc(C)no3)ccc2OC)C1 (stereo unspecified),"inconclusive: 28.2 µM [inhibitor, single point]",–

Compound,Potency,"activity change, negative = inhibition"
CCOc1ccccc1CNC(=O)c1sc2ncccc2c1-n1cccc1,"inconclusive: 28.2 µM [inhibitor, single point]",–
CC(C)CC(=O)Nc1ccc2nc(SCC(=O)N3CCc4ccccc43)sc2c1,"inconclusive: 31.6 µM [inhibitor, single point]",–
CCOc1cc(C2c3c(-c4cc(C)ccc4O)n[nH]c3C(=O)N2CCCOC(C)C)ccc1O (stereo unspecified),"inconclusive: 28.2 µM [inhibitor, single point]",–
COc1cccc(Cn2c(SCC(=O)N3CCN(c4ccc(F)cc4)CC3)nc3ccccc32)c1,"inconclusive: 35.5 µM [inhibitor, single point]",–
O=C(Nc1cc(-c2ccccc2)sc1C(=O)O)c1cccc(F)c1,–,inactive: -6.98%
COc1ccc2c(c1)CCc1c(C(=O)Nc3cc(OC)c(Cl)cc3OC)noc1-2,–,inactive: -7.61%
COC(=O)c1cc(Nc2nc3ccccc3nc2NS(=O)(=O)c2ccc(C)cc2)ccc1Cl,–,inactive: 20.8%
CCn1c2ccccc2c2cc(CN3CCN(Cc4ccc(Br)cc4)CC3)ccc21,"inconclusive: 31.6 µM [inhibitor, single point]",–
O=[N+]([O-])c1ccc(Nc2ccccc2-c2ccccc2)c2nonc12,–,inactive: -16.2%
Cc1ccc(-c2cn3cccnc3n2)cc1NC(=O)C(C)(C)Oc1ccc(Cl)cc1,"inconclusive: 25.1 µM [inhibitor, partial curve]",–
COc1cccc(NCc2cccn2-c2nnc(N3CCC(C)CC3)s2)c1,active: 10 µM,–
COCCNC(=O)CCCn1c(SCC(=O)Nc2ccc(F)cc2)nc2c(sc3ccccc32)c1=O,"inconclusive: 28.2 µM [inhibitor, single point]",–
CCOC(=O)Cn1c(=N)n(Cc2ccc(C(C)(C)C)cc2)c2ccccc21,"inconclusive: 39.8 µM [inhibitor, single point]",–
COc1ccccc1C1NC(=O)c2n[nH]c(-c3cccs3)c21 (stereo unspecified),"inconclusive: 39.8 µM [inhibitor, partial curve, poor fit]",–
CCc1ccc(S(=O)(=O)c2cn(CC(=O)Nc3ccc(F)c(Cl)c3)c3ccccc3c2=O)cc1,"inconclusive: 20 µM [inhibitor, single point]",–
CSc1nc(NCCOC(C)=O)c(C#N)c(-c2ccc(C(C)(C)C)cc2)n1,"inconclusive: 22.4 µM [inhibitor, partial curve, poor fit]",–
Cc1ccc2nc(CN3CCN(C(=O)Nc4ccc(F)cc4)CC3)oc2c1,"inconclusive: 25.1 µM [inhibitor, partial curve, poor fit]",–
O=C(COc1ccccc1F)Nc1ccc2nc(SCC(=O)N3CCc4ccccc43)sc2c1,"inconclusive: 39.8 µM [inhibitor, single point]",–
CCOc1ccc(-c2cn3c(n2)sc2cc(C(=O)NCCCN4CCCCCC4)ccc23)cc1,–,inactive: -3.61%
CC1=C(C(=O)Nc2cccnc2)C(c2ccc(F)cc2)n2nc(-c3cccc(C)c3)nc2N1 (stereo unspecified),"inconclusive: 20 µM [inhibitor, partial curve]",–
CCc1ccc2[nH]cc(S(=O)(=O)c3ccc(C(C)C)cc3)c(=O)c2c1,"inconclusive: 35.5 µM [inhibitor, partial curve, poor fit]",–

Compound,Potency,"activity change, negative = inhibition"
Oc1ccccc1-c1nc(-c2cccs2)c(-c2cccs2)[nH]1,"inconclusive: 39.8 µM [inhibitor, single point]",–
Cc1ccccc1C(=O)Nc1cccc(OCc2cc(=O)n3c4c(sc3n2)CCCC4)c1,–,inactive: -18.2%
COc1cccc(CNS(=O)(=O)c2ccc3[nH]c4c(c3c2)CCCCC4)c1,"inconclusive: 28.2 µM [inhibitor, single point]",–
Cc1ccc(C)c(N2CCN(C(=O)c3ccc(-c4nc(COc5ccccc5)c(C)o4)cc3)CC2)c1,"inconclusive: 15.8 µM [inhibitor, partial curve, poor fit]",–
COc1ccc(CN(Cc2ccco2)C(=O)COc2ccc(Cl)cc2C)cc1,"inconclusive: 39.8 µM [inhibitor, single point]",–
CC(=O)N1CCc2c(sc3c2c(=O)n(-c2cccc(Cl)c2C)c(=O)n3Cc2ccccc2C)C1,"inconclusive: 35.5 µM [inhibitor, partial curve, poor fit]",–
O=C(CCCCn1c(=O)[nH]c2ccsc2c1=O)N1CCN(c2cccc(C(F)(F)F)c2)CC1,"inconclusive: 22.4 µM [inhibitor, partial curve, poor fit]",–
COc1ccc(CNC(=O)C2CCCN(S(=O)(=O)N(C)c3ccc(F)cc3)C2)cc1OC (stereo unspecified),"inconclusive: 15.8 µM [inhibitor, partial curve, poor fit]",–
CCCCCCCCCCCCCCCC(=O)O,–,inactive: -3.51%
CN(C)c1ccc(CN(Cc2ccco2)C(=O)COc2ccc(F)cc2)cc1,"inconclusive: 35.5 µM [inhibitor, single point]",–
COc1ccccc1CCNC(=O)C(=O)NCC(c1ccco1)S(=O)(=O)c1cccs1 (stereo unspecified),–,inactive: -22%
C=C[C@@H]1CN2CCC1C[C@@H]2C(O)c1ccnc2ccc(OC)cc12 (stereo partly specified),–,inactive: -4.17%
CCc1ccc(CNc2ncc(-c3cccc(OC)c3)n2C)cc1,–,inactive: -28.8%
Cc1cccc(C)c1NC(=O)Cn1c(=O)n(Cc2ccc(C(=O)NCc3ccco3)cc2)c(=O)c2sccc21,–,inactive: -13.2%
Cc1cccc(N2CCN(C(=O)c3ccc4nc(N5CCC(C)CC5)sc4c3)CC2)c1C,active: 2.51 µM,–
CCCSc1ncc(Cl)c(C(=O)Nc2ccc(S(=O)(=O)N3CCCC(C)C3)cc2)n1 (stereo unspecified),"inconclusive: 28.2 µM [inhibitor, partial curve, poor fit]",–
COc1cc(O)c2c(c1)C1OC1C[C@H](O)[C@H](O)C(=O)C=CC[C@H](C)OC2=O (stereo partly specified),"inconclusive: 19.3 µM [inhibitor, partial curve]",–
COc1ccc(N2CCN(C(=O)c3ccc4c(c3)CCN4S(=O)(=O)c3ccccc3)CC2)cc1,"inconclusive: 22.4 µM [inhibitor, partial curve, poor fit]",–
Cc1c(C(=O)N(C)Cc2ccccc2)sc2nc(-c3ccc(F)cc3)cn12,"inconclusive: 22.4 µM [inhibitor, single point]",–
